# Read-outs that look alike come from different tables or passages of the source.
# Test system: thymidine kinase (TK) locus in L5178Y mouse lymphoma cells
# Experiment: L5178Y TK+/− Mouse Lymphoma Forward Mutation Screen
# Description: This assay evaluated the test compounds for their ability induce significant mutagenic activity at the thymidine kinase (TK) locus in L5178Y mouse lymphoma cells as assayed by colony growth in the presence and absence of S9, an exogenous metabolic activation system of mammalian microsomal enzymes derived from Acrolor-induced rat liver and is based on the assay reported by (Clive and Spector, 31 Mutation Research (1975) 17-29; Clive et al. 59 Mutation Research (1979) 61-108; Amacher et al Mutation Research 72 (1980) 447-474; Clive et al. Mutation Research 189 (1987) 143-156). The cell cultures were scored for both cytotoxicity and increases in the mutant frequency wherein a positive result was based on a frequency that was at least twice the average mutant frequency of the concurrent vehicle control (DMSO). The mouse lymphoma cells used for this assay were heterozygous at the TK locus and may undergo a single step forward mutation to the TK^−/− genotype in which little or no TK activity remains. These mutants are viable in normal cell culture medium but these mutants are resistant to the thymidine analog 5-trifluorothymidine (TFT) because they cannot incorporate the toxic analog of thymidine into DNA. Thus, cells that grow to form colonies in the presence of TFT are therefore assumed to have mutated, either spontaneously or by the test compounds. The results of this assay are not definitive but rather an indicator that a test compound has mutagenic properties, or not.
# The mouse lymphoma cells were cultured in RPMI 1640 supplemented with horse serum (10% by volume), Pluronic F68, L-glutamine, sodium pyruvate, penicillin and streptomycin (Amacher et al Mutation Research 72 (1980) 447-474; Clive and Spector, Mutation Research 31 (1975) 17-29). Treatment medium was Fisher's medium with the same medium supplements as used for the culture medium except that the horse serum was reduced to 5% by volume. Cloning medium was RPMI 1640 with up to 20% horse serum, without Pluronic F68 and with the addition of 0.24% BBL agar to achieve a semisolid state. Selection medium was cloning medium containing 3 μg/ml of TFT (Clive et al. Mutation Research 189 (1987) 143-156).
# The positive controls were Methyl methanesulfonate (MMS) and Methylcholanthrene (MCA) to be used without and with the S9 activation, respectively. MMS is a direct acting mutagen that is highly mutagenic to L5178Y TK^+/− cells and was used at a concentration of 13 μg/mL. MCA requires metabolic activation by microsomal enzymes to become mutagenic to L5178Y TK^+/− cells, S9, and was used at a concentration of 2 and/or 4 μg/mL. The test compounds, ethidium bromide, thiazole orange and Compound 1, were assayed at concentrations of 0.00625 to 4.93 μg/mL.
# The cells were pelleted and resuspended in treatment medium containing controls or test compounds, with and without S9. The tubes were placed in an orbital shaker incubator at 35-38° C. and rotated at 70±10 orbitals per minute. After a four-hour exposure period the cells were washed twice, resuspended in 10 mL of culture medium and returned to the orbital shaker and the cells were allowed to grow for two days for mutant recovery. Cell densities less than approximately 3×10^5 cells/mL after day 2 were no considered for mutant selection. The mutants were recovered by plating a total of 3×10^6 cells in selection medium in soft agar. The dishes were incubated for 10 to 14 days at approximately 37° C. with about 5% CO2/95% humidified air.
# The mutant frequency was calculated as the ratio of the total number of mutant colonies found in each mutant selection dishes to the total number of cells seeded, adjusted by the absolute selection cloning efficiency. The cytotoxicity was based on the relative suspension growth of cells over the 2-day expression period multiplied by the relative cloning efficiency at the time of selection resulting in a relative total growth (RTG) number.
smiles,measurement,setting,value
CCC[n+]1ccc(/C=C2\Sc3ccccc3N2C)c2ccccc21 [Compound 1],Mutant Frequency (×10^−6 Units),"mouse, 4 h, 0.125 μg/mL",55.2 ×10^−6 Units
same,RTG % (relative total growth),"mouse, 4 h, 0.125 μg/mL",80.3%
same,Mutant Frequency (×10^−6 Units),"mouse, 4 h, 0.25 μg/mL",67.3 ×10^−6 Units
same,RTG % (relative total growth),"mouse, 4 h, 0.25 μg/mL",26.5%
same,Mutant Frequency (×10^−6 Units),"mouse, 4 h, 1.24 μg/mL",70.6 ×10^−6 Units
same,RTG % (relative total growth),"mouse, 4 h, 1.24 μg/mL",65.1%
same,Mutant Frequency (×10^−6 Units),"mouse, 4 h, 2.47 μg/mL",86.7 ×10^−6 Units
same,RTG % (relative total growth),"mouse, 4 h, 2.47 μg/mL",47.1%
same,Mutant Frequency (×10^−6 Units),"mouse, 4 h, 4.93 μg/mL",114.5 ×10^−6 Units
same,RTG % (relative total growth),"mouse, 4 h, 4.93 μg/mL",7.6%
"CC[n+]1c(-c2ccccc2)c2cc(N)ccc2c2ccc(N)cc21 [Ethidium bromide, ethidium bromide]",Mutant Frequency (×10^−6 Units),"With S9, 2.47 μg/mL",73.7 ×10^−6 Units
same,RTG % (relative total growth),"With S9, 2.47 μg/mL",37.1%
same,Mutant Frequency (×10^−6 Units),"With S9, 4.93 μg/mL",93.6 ×10^−6 Units
same,RTG % (relative total growth),"With S9, 4.93 μg/mL",23.1%
same,Mutant Frequency (×10^−6 Units),"Without S9, 1.24 μg/mL",59.3 ×10^−6 Units
same,RTG % (relative total growth),"Without S9, 1.24 μg/mL",46.3%
same,Mutant Frequency (×10^−6 Units),"Without S9, 2.47 μg/mL",67.6 ×10^−6 Units
same,RTG % (relative total growth),"Without S9, 2.47 μg/mL",33.7%
same,Mutant Frequency (×10^−6 Units),"Without S9, 4.93 μg/mL",94.2 ×10^−6 Units
same,RTG % (relative total growth),"Without S9, 4.93 μg/mL",22.7%
same,Mutant Frequency (×10^−6 Units),"Without S9, .620 μg/mL",64.3 ×10^−6 Units
same,RTG % (relative total growth),"Without S9, .620 μg/mL",53.6%
same,"Forward Mutation Test, L5178YTK+/− mouse lymphoma cells: result",with and without S9,negative
"Cc1ccc2cc3c(ccc4ccccc43)c3c2c1CC3 [MCA, Methylcholanthrene]",Mutant Frequency (×10^−6 Units),"With S9, 2 μg/mL",446.4 ×10^−6 Units
same,RTG % (relative total growth),"With S9, 2 μg/mL",35.0%
same,Mutant Frequency (×10^−6 Units),"With S9, 4 μg/mL",478.4 ×10^−6 Units
same,RTG % (relative total growth),"With S9, 4 μg/mL",17.1%
"CN1/C(=C/c2cc[n+](C)c3ccccc23)Sc2ccccc21 [Thiazole orange, thiazole orange]","Forward Mutation Test, L5178YTK+/− mouse lymphoma cells: result",,negative
same,Mutant Frequency (×10^−6 Units),"mouse, 4 h, 0.1 μg/mL",53.0 ×10^−6 Units
same,RTG % (relative total growth),"mouse, 4 h, 0.1 μg/mL",60.9%
same,Mutant Frequency (×10^−6 Units),"mouse, 4 h, 0.2 μg/mL",58.8 ×10^−6 Units
same,RTG % (relative total growth),"mouse, 4 h, 0.2 μg/mL",23.4%
same,Mutant Frequency (×10^−6 Units),"mouse, 4 h, 4.93 μg/mL",77.4 ×10^−6 Units
same,RTG % (relative total growth),"mouse, 4 h, 4.93 μg/mL",90.4%
same,Mutant Frequency (×10^−6 Units),"mouse, 4 h, 9.85 μg/mL",78.0 ×10^−6 Units
same,RTG % (relative total growth),"mouse, 4 h, 9.85 μg/mL",22.6%

# Source: patent US8969004B2, “Detection of immobilized nucleic acid” (Life Technologies Corporation, priority 2004, dated 2015)
